{
  "source": "PubChem BioAssay AID686970",
  "about": "(National Center for Advancing Translational Sciences (NCATS), 2013)",
  "note": "The whole screen tested about 360,000 compounds, of which about 6,000 (1.7%) were called active. The inconclusive results got no clear call from the source; some entries with a clear call stand among them for comparison. Calls come from the whole dose curve; as a rule, active = well fitted cell-killing curve with a large enough effect; inconclusive = small, poorly fitted or top-dose-only effect, or effect the other way; inactive = flat fitted curve, though single readings scatter. No potency is given beside an inconclusive call; the fits are too rough. Potency is the fitted concentration of half-maximal effect; tags give direction and shape of the fitted curve.",
  "data": [
    {"test": "qHTS for induction of synthetic lethality in tumor cells producing 2HG: qHTS for the HT-1080-NT fibrosarcoma cell line;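 note: NT is the 2HG producing partner of a matched IDH1 knockdown line; nearly all actives have a fitted effect of over 55% in size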;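 for activity, negative = less viability: 0% = DMSO-treated cells and -100% = media-only wells without cells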", "conditions": "HT-1080-NT fibrosarcoma viability, CellTiter-Glo ATP luminescence, 48 h; activity, negative = less viability: at 46.1 µM (top of the series) unless noted", "procedure,_shortened": "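Compounds were tested in concentration-response format on HT-1080-NT cells for 48 hours at 37 degrees C. Cell viability came from CellTiter-Glo luminescence; curves were classified by r2, response magnitude and activity.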", "values": [
      {"smiles": "Cn1c(CNC(=O)CCNC(=O)c2ccc(F)c(F)c2)cc(=O)n(C)c1=O", "activity, negative = less viability": "inconclusive: -0.497% [cytotoxic]"},
      {"smiles": "Cc1cccc(NC(=O)c2ccccc2[N+](=O)[O-])n1", "activity, negative = less viability": "inactive: 17.9%"},
      {"smiles": "COc1cccc(Cl)c1NC(=O)N1CCc2c([nH]c3ccccc23)C1C(F)(F)F", "note": "(configuration not stated)", "Potency": "active: 20.6 µM"},
      {"smiles": "Cc1ccc(S(=O)(=O)NCc2ccccc2)cc1C(=O)N1CCCC(C(F)(F)F)C1", "note": "(configuration not stated)", "activity, negative = less viability": "inconclusive: -0.101% [cytotoxic]"},
      {"smiles": "CCOc1ccc(Nc2nc(Cc3nnc(SCC(=O)c4ccc(C)c(C)c4)o3)cs2)cc1", "Potency": "inconclusive [cytotoxic, single point]"},
      {"smiles": "CN(C)C(=O)NC1c2ccccc2-c2ccccc21", "activity, negative = less viability": "inactive: 3.09%"},
      {"smiles": "Cc1ccc2c(c1)C(=O)C(=O)N2CC(=O)Nc1ccccc1NC(=O)c1ccccn1", "Potency": "inconclusive [cytotoxic, single point]"},
      {"smiles": "O=C(/C=C/c1cccnc1)c1cccc(O)c1", "Potency": "active: 20.6 µM"},
      {"smiles": "COc1ccccc1N1CCN(C(=O)c2cc3c(C)nc4ccccc4c3o2)CC1", "Potency": "inconclusive [cytotoxic, single point]"},
      {"smiles": "FC(F)(F)c1nnc2c(Sc3ccccn3)nc3ccccc3n12", "Potency": "inconclusive [cytotoxic, single point]"},
      {"smiles": "c1ccc(Nc2nc(NCC3CCCO3)c3ccccc3n2)cc1", "note": "(configuration not stated)", "Potency": "active: 23.1 µM"},
      {"smiles": "C[C@H]1CN([C@@H](C)CO)C(=O)CCCn2nncc2CO[C@H]1CN(C)C(=O)Nc1cccc2ccccc12", "activity, negative = less viability": "inactive: 19.2%"},
      {"smiles": "CC(=O)N(c1ccccc1)C1SC(=O)N(c2ccccc2)C1=O", "note": "(configuration not stated)", "Potency": "inconclusive [cytotoxic, single point]"},
      {"smiles": "N#CC1=C(N)Oc2cc(N)ccc2C1c1cccc(Br)c1", "note": "(configuration not stated)", "Potency": "inconclusive [cytotoxic, full curve]"},
      {"smiles": "Cc1ccc2cc(CCNS(=O)(=O)c3ccc(F)cc3)c(=O)[nH]c2c1C", "activity, negative = less viability": "inactive: -4.8%"},
      {"smiles": "COc1ccc(CCNc2ncnc3c2oc2ccccc23)cc1OC", "Potency": "active: 7.94 µM"},
      {"smiles": "C=CCn1c(=S)[nH]c2sc3c(c2c1=O)CCC3", "Potency": "active: 7.08 µM"},
      {"smiles": "Cc1c(C(=O)NC(C(C)C)C(C)C)cccc1[N+](=O)[O-]", "activity, negative = less viability": "inactive: -2.1%"},
      {"smiles": "CCc1ccccc1N1CC(C(=O)Nc2cc(C)on2)CC1=O", "note": "(configuration not stated)", "activity, negative = less viability": "inconclusive: 35.1%"},
      {"smiles": "CN1C(=O)C2(c3ccccc31)c1c(oc3ccccc3c1=O)C(=O)N2CCCO", "note": "(configuration not stated)", "activity, negative = less viability": "inconclusive: 30.1%"},
      {"smiles": "COc1ccc(CCCNC(=O)C2(C)Cc3c(-c4ccc5c(c4)OCO5)ccnc3O2)cc1", "note": "(configuration not stated)", "Potency": "inconclusive [cytotoxic, full curve]"},
      {"smiles": "COc1ccccc1NS(=O)(=O)c1cccc(C(=O)N2CC(C)OC(C)C2)c1", "note": "(configuration not stated)", "activity, negative = less viability": "inactive: 8.67%"}
    ]}
  ]
}
